Test results taken from paper PMC8305168.
Results are given in words; binding and its absence hold for the method and conditions named. Binding seen in cells or lysates may run through a third protein. Some binding calls cover weakened binding; strength is not graded here.

Sequences of proteins named here, by UniProt entry; tags and fusion partners are left off.
UniProt Q3U9G9: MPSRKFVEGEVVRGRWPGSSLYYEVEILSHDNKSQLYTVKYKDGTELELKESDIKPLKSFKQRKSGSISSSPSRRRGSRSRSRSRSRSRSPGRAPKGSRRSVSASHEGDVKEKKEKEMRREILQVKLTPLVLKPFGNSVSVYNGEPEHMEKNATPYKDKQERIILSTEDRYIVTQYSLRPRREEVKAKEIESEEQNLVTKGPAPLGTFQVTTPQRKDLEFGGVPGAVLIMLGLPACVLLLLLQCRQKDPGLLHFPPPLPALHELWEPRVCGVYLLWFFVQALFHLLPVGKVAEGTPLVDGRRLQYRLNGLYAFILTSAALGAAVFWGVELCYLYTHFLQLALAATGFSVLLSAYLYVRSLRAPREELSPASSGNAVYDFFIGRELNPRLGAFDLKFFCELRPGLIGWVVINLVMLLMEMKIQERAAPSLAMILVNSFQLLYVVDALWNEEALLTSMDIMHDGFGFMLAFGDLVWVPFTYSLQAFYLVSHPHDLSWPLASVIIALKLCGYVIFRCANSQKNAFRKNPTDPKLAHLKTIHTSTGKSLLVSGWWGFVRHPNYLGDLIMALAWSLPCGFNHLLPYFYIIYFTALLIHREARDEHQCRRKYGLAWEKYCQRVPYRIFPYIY

B1: DDB2 (protein, UniProt Q99J79 1-432)
chain: MAPKKCPETQKSPDVAVLLRSKSRRGPQELEPEAKKLRVQGPVSSRTCESCCLLAELSSLQIPSRSSSIVRDLYQHKLGKATWSSLQQGLQKSFLHSLASYQVFRKAAPFDRRTTSLAWHPTHPSTLAVGSKGGDIMIWNFGIKDKPIFLKGIGAGGSITGLKFNHLNTNQFFASSMEGTTRLQDFKGNILRVYTSSNSCKVWFCSLDVSAKSRVVVTGDNMGHVILLSTDGKELWNLRMHKKKVAHVALNPCCDWLLATASIDQTVKIWDLRQIKGKDSFLYSLPHRHPVNAACFSPDGARLLTTDQNNEIRVYSASQWDSPLNLISHPHRHFQHLTPIKATWHSRHNLIVVGRYPDPNLKSCVPYELRTIDVFDGSSGKMMCQLYDPGYSGITSLNEFNPMGDTLASTMGYHILIWSQEEDGSQKDHERL
B2: TCOF (protein, UniProt O08784 1-1320)
chain: MAEARKRRELLPLIYHHLLQAGYVRAAREVKEQSGQKSFLTQPVTLLDIYTHWQQTSELGQKQKAEDDETLQAKKSRVSDPVSSSESSDQEKEEEAATERAKATPRPTPVNSATAALPSKVKEKGKTKTANKTVNSVSHPGSGKTVVHLLSGKSPKKSAEPLANTVLASETEEEGNAQALGPTAKSGTVSAGQGSSSSEDSSISSDETDVEVKSPAKPAQAKASAAPAKDPPARTAPGPTKLGNVAPTPAKPARAAAAAAAAAVAAAAAAAAEESESSEEDSDSEDEAPAGLPSQVKASGKGPHVRADSVSAKGISGKGPILATPGKTGPAATQAKAERPEKDSETSSEDDSDSEDEMPVTVNTPQARTSGKSPRARGTSAPAKESSQKGAPAVTPGKARPVAAQAGKPEAKSSEESESDSGETPAAATLTTSPAKVKPLGKSSQVRPVSTVTPGSSGKGANLPCPGKVGSAALRVQMVKKEDVSESSSAELDSDGPGSPAKAKASLALPQKVRPVATQVKTDRGKGHSGSSEESSDSEEEAAPAASAAQAKPALEKQMKASSRKGTPASATGASTSSHCKAGAVTSSASLSSPALAKGTQRSDVDSSSESESEGAAPSTPRVQGKSGGKGLQGKAALGQGVAPVHTQKTGPSVKAMAQEDSESLEEDSSSEEEDETPAQATPLGRLPQAKANPPPTKTPPASASGKAVAAPTKGKPPVPNSTVSARGQRSVPAAGKAGAPATQAQKGPVAGTGEDSESSSKEESDSEEETPAQIKPVGKTSQVRAASAPAKESPKKGAHPGTPGKTGSSATQAQPGKTEDSDSSSEESDSDTEMPSAQAIKSPPVSVNRNSSPAVPAPTPEGVQAVNTTKKASGTTAQSSSSESEDGDEDLIPATQPSTYALRTSVTTPAALSRAASQPSKSEQSSRMPKGKKAKAAASAQTSSAVETLPMMPPQSAPIQPKATNKLGKSKLPEKQQLAPGYPKAPRSSEDSSDTSSEDEEDAKRPQMPKSAHRLDPDPSQKETVVEETPTESSEDEMVAPSQSLLSGYMTPGLTVANSQASKATPRPDSNSLASSAPATKDNPDGKQKSKSQHAADTALPKTGRKEASSGSTPQKPKKLKKSTSSSPAPTQTLPNSITQRLLEQAWPLSEAQVQASVVKVLTELLEQERLKATEAIKESGKKSQKRKLSGDLEAGAPKNKKKKEQPVPRASAVSPEKAPMTSKAKSKLDKGSAGGKGKGSPGPQGAKEKPDGELLGIKLESGEQSDPKSKSKKKKSLKKKKDKEKKEKKKGKKSLAKDSASPIQKKKKKKKKSAEPAV
B3: NOLC1 (protein, UniProt E9Q5C9 1-702)
chain: MADTGLRRVVPSDLYPLVLRFLRDSQLSEVASKFAKATGATQQDANASSLLDIYSFWLNRSTKAPKVKLQSNGPVTKKAKKETSSSDSSEDSSEDEDKKAQGLPTQKAAAQVKRASVPQHAGKAAAKASESSSSEESSEEEEEDKKKKPVQQKAAKPQAKAVRPPAKKAESSESDSDSDSDSSSEEETPQTQKPKAAVAAKAQTKAEAKPGTPAKAQPKVANGKAAASSSSSSSSDDSEEEKKAAAPPKKTVPKKQVVAKAPVKVAAAPTQKSSSSEDSSSEEEEGQRQPMKKKAGPYSSVPPPSVPLPKKSPGTQAPKKAAAQTQPADSSDDSSDDSDSSSEEEKKPPAKTVVSKTPAKAAPVKKKAESSSDSSDSDSSEDEAPAKPVSTTKSPKPAVTPKPSAAKAVTTPKQPAGSNQKPQSRKADSSSSEEESSSSEEEEASKKSATTPKAKVTAKAAPAKQAPQAAGDSSSDSDSSSSEEEEKTPKPPAKKKAAGGAVSTPAPGKKAEAKSSSSSSSSSSEDSSEEEKKKKPKATTPKIQASKANGTPASLNGKAAKESEEEEEEEETEEKKKAAGTKPGSGKKRKQNETADEATTPQAKKVKLETPNTFPKRKKGERRASSPFRRVREEEIEVDSRVADNSFDAKRGAAGDWGERANQVLKFTKGKSFRHEKTKKKRGSYRGGSISVQVNSVKFDSE
B4: Lap2α (protein, UniProt Q61033 1-693)
chain: MPEFLEDPSVLTKDKLKSELVANNVTLPAGEQRKDVYVQLYLQHLTARNRPPLAAGANSKGPPDFSSDEEREPTPVLGSGASVGRGRGAVGRKATKKTDKPRLEDKDDLDVTELSNEELLDQLVRYGVNPGPIVGTTRKLYEKKLLKLREQGTESRSSTPLPTVSSSAENTRQNGSNDSDRYSDNDEGKKKEHKKVKSARDCVPFSELASTPSGAFFQGISFPEISTRPPLGRTELQAAKKVQTTKRDPPRETCTDTALPGKGQTHKLAPGRSLFIPSESSYDRCVEKSSSPSSQREFAARLVSAAASPSLIRETTTTYSKDIVENICRGGKSRAQPLRAEEPGVSDQSVFSSEREVLQESERSQVISPPLAQAIRDYVNSLLVQGGVGSLPGTSDSVPTLDVENICKRLSQSSYQDSESLSPPRKVPRLSEKPARGGDSGSCVAFQNTPGSEHRSSFAKSVVSHSLTTLGVEVSKPPPQHDKIEASEPSFPLHESILKVVEEEWQQIDRQLPSVACRYPVSSIEAARILSVPKVDDEILGFISEATPRAATQASSTESCDKHLDLALCRSYEAAASALQIAAHTAFVAKSLQADISQAAQIINSDPSDAQQALRILNRTYDAASYLCDAAFDEVRMSACAMGSSTMGRRYLWLKDCKISPASKNKLTVAPFKGGTLFGGEVHKVIKKRGNKQ
B5: fibrillarin (enzyme, UniProt P35550 1-327)
chain: MKPGFSPRGGGFGGRGGFGDRGGRGGGRGGRGGFGGGRGGFGGGGRGRGGGGGGFRGRGGGGGRGGGFQSGGNRGRGGGRGGKRGNQSGKNVMVEPHRHEGVFICRGKEDALVTKNLVPGESVYGEKRVSISEGDDKIEYRAWNPFRSKLAAAILGGVDQIHIKPGAKVLYLGAASGTTVSHVSDIVGPDGLVYAVEFSHRSGRDLINLAKKRTNIIPVIEDARHPHKYRMLIAMVDVIFADVAQPDQTRIVALNAHTFLRNGGHFVISIKANCIDSTASAEAVFASEVKKMQQENMKPQEQLTLEPYERDHAVVVGVYRPPPKVKN

Target: T1, METTL16 methyltransferase (methyltransferase-like 16) (mouse (endogenous in MEFs)) (UniProt Q9CQG2)
T1 sequence: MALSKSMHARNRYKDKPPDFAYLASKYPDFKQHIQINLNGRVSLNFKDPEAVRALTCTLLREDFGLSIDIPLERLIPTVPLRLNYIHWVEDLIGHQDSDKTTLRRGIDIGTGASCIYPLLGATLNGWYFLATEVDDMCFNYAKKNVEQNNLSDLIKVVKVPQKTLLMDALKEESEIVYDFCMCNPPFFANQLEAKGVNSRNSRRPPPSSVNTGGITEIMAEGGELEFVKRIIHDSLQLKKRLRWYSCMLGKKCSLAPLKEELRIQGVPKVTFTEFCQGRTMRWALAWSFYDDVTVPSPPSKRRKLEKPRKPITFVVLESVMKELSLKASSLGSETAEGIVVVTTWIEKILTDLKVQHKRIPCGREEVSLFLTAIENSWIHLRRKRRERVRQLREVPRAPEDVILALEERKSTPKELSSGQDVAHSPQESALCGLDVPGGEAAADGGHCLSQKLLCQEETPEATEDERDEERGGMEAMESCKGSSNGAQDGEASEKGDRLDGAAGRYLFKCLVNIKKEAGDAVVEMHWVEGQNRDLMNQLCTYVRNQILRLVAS
Experiment: co-IP; 500 μg lysate (Pierce IP Lysis Buffer) of wt MEFs or LMNA dn cells, non-irradiated or UVA-irradiated, precipitated with anti-METTL16 antibody (HPA020352) or control rabbit IgG on Catch and Release v2.0 columns, overnight at 4 °C; eluate blotted for the partners

Molecule	binding
Lamin B Receptor (LBR) (from UniProt Q3U9G9 1-626)	binds
phosphorylated histone H2AX (γH2AX) (from UniProt P27661 1-143)	binds
B1	binds
B2	binds
B3	binds
B4	binds
B5	no binding
